Sequences with one replicate were seen in a single cluster, so their values are uncertain.
These sequences were tested on ATP (assay: switch fluorescence ratio, 500 uM ATP over buffer (Cy3 cluster intensity, sum of 5 cycles each) (fold (ratio)); higher = stronger signal-on switching upon ATP binding; sequences stand for … in TCGTCGGCAGCGTCAGATGTGTATAAGAGACAGTTTTTTTTTTTTTTTTTTTTTTTTT…TC). Settings: aptamer strand: ATP DNA aptamer (quencher-CACCTGGGGGAGTATTGCGGAGGAAGG + anchor), 100 nM annealed; ATP concentration: 500 uM; one replicate.
Summary of the method: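 Exposure to 500 uM ATP lasted 15 min at 22 °C before imaging, and a selection-buffer image was taken beforehand, for Cy3-labelled switching-strand clusters on a modified Illumina MiSeq flow-cell annealed to 100 nM quencher-labelled ATP aptamer. Five buffer/ATP cycles were run with NaOH stripping and re-annealing between them. The fluorescence ratio per cluster is summed target-cycle over summed buffer-cycle Cy3 intensity, averaged per switch-domain sequence. Clusters outside 100-1000 RFU were excluded.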

Row | Sequence | switch fluorescence ratio
1 | TAGCCCCGGG | 1.04
2 | TAGCCCTATT | 1.01
3 | TAGCCGTTTC | 1.01
4 | TAGCCTTAAC | 1.06
5 | TAGCCTTATT | 1.72
6 | TAGCCTTCGT | 1.15
7 | TAGCGGCTA | 0.99
8 | TAGCGTAAGC | 0.968
9 | TAGCGTGAGG | 0.988
10 | TAGCGTTGAG | 0.986
11 | TAGCTAAAAA | 0.99
12 | TAGCTGGATC | 1.09
13 | TAGCTGTCAA | 1.05
14 | TAGCTGTGGA | 1.01
15 | TAGCTTGGGC | 0.999
16 | TAGCTTGTCC | 0.971
17 | TAGCTTTCTG | 0.994
18 | TAGGAACACA | 1.02
19 | TAGGACTCC | 1.07
20 | TAGGAGACGG | 0.942
21 | TAGGAGAGCA | 0.985
22 | TAGGAGATCT | 0.959
23 | TAGGAGTGTG | 1.25
24 | TAGGAGTTTT | 1.01
25 | TAGGATAGTA | 0.991

Row | Sequence | switch fluorescence ratio
26 | TAGGATTTGC | 0.987
27 | TAGGCAACAT | 1.02
28 | TAGGCACAAT | 1.02
29 | TAGGCAGGTC | 0.977
30 | TAGGCATCTC | 0.941
31 | TAGGCCAA | 0.961
32 | TAGGCCAACT | 0.996
33 | TAGGCCAATG | 1.01
34 | TAGGCCAGCG | 1
35 | TAGGCCCTTT | 1
36 | TAGGCCTTGT | 1
37 | TAGGCGTAAG | 1.03
38 | TAGGCTCCTG | 1.01
39 | TAGGCTCGTT | 1
40 | TAGGCTGTGG | 1
41 | TAGGCTGTTC | 0.944
42 | TAGGGAAGTG | 1.01
43 | TAGGGACGGT | 1.1
44 | TAGGGAGGTA | 1.08
45 | TAGGGCCGTC | 1.02
46 | TAGGGCGC | 1
47 | TAGGGCTATG | 1.03
48 | TAGGGCTC | 1
49 | TAGGGCTTA | 0.961
50 | TAGGGCTTCC | 1.88

Row | Sequence | switch fluorescence ratio
51 | TAGGGTAACA | 0.991
52 | TAGGGTCGCC | 1.02
53 | TAGGGTGCAA | 1.03
54 | TAGGGTGGAC | 0.985
55 | TAGGGTGGGT | 1.01
56 | TAGGTACTAC | 1.04
57 | TAGGTAGATA | 1.03
58 | TAGGTCGGAT | 1.03
59 | TAGGTCGTTG | 0.966
60 | TAGGTGATCA | 0.971
61 | TAGGTGTCGT | 0.997
62 | TAGGTTACGT | 1.01
63 | TAGGTTGTGA | 0.996
64 | TAGTAACGGG | 1.02
65 | TAGTACGGCC | 1.15
66 | TAGTAGCCGG | 1.05
67 | TAGTATGAAT | 0.993
68 | TAGTATGGCT | 0.973
69 | TAGTATTACT | 0.961
70 | TAGTATTTTA | 1.04
71 | TAGTCATCCT | 0.97
72 | TAGTCCCGAG | 0.993
73 | TAGTCGAATC | 0.995
74 | TAGTCTAGAT | 1.01
75 | TAGTCTGCCA | 1

Row | Sequence | switch fluorescence ratio
76 | TAGTCTTAG | 0.999
77 | TAGTGATC | 0.922
78 | TAGTGATTCG | 0.991
79 | TAGTGCCCCA | 1.04
80 | TAGTGCGATG | 0.959
81 | TAGTGCGGGC | 1.01
82 | TAGTGGCTAT | 0.989
83 | TAGTGGTAT | 0.974
84 | TAGTGTTAAC | 1.03
85 | TAGTGTTTAT | 0.992
86 | TAGTTACTGA | 1.09
87 | TAGTTATACC | 1.01
88 | TAGTTATGCT | 0.986
89 | TAGTTCCTCT | 1.01
90 | TAGTTCGCTG | 0.974
91 | TAGTTCGTGG | 0.896
92 | TAGTTTCATA | 1
93 | TAGTTTGTTG | 0.978
94 | TATAAATAAG | 0.998
95 | TATAAATCGG | 0.941
96 | TATAAGAGG | 0.982
97 | TATAAGATT | 0.967
98 | TATAAGCCGG | 1.07
99 | TATAAGCTGA | 1.02
100 | TATAAGGAGA | 0.929
